Measurements as given in the supplement of paper PMC12217912.
Some of the results follow. Sequences were assembled here from the parent chain. Values near 0.05 are background.

B1: TEV protease; numbered along this chain (parent)
chain: MGESLFKGPRDYNPISSSICHLTNESDGHTTSLYGIGFGPFIITNKHLFRRNNGTLVVQSLHGVFKVKDTTTLQQHLVDGRDMIIIRMPKDFPPFPQKLKFREPQREERICLVTTNFQTKSMSSMVSDTSCTFPSGDGIFWKHWIQTKDGQCGSPLVSTRDGFIVGIHSASNFTNTNNYFTSVPKNFMELLTNQEAQQWVSGWRLNADSVLWGGHKVFMVKPEEPFQPVKEATQL

Variants of: B1
Assay: raw area under fraction-flipped curve 0-4 h after induction (AUC4h, not background-subtracted), DNA-recorder readout of cleavage of the substrate (dimensionless); higher = more cleavage of the substrate by the protease variant
Details: temperature: 34 °C; time window: 0-4 h after rhamnose induction
Protocol: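 In vivo DNA recorder in E. coli TOP10(DE3) ΔrhaA at 34 °C. Each TEVp single-site mutant (parent TEVp 0) is paired with a single-site variant of the 7-mer TEVs (canonical ENLYFQ|S). The substrate sits between flexible linkers in a Bxb1-sfGFP-TEVs-SsrA fusion, so cleavage stabilises Bxb1 and speeds flipping of a recombination array, read by NGS. The value is the raw area under the fraction-flipped curve over 0-4 h after rhamnose induction (AUC4h), with ≥20 reads per time point. It is not background-subtracted; inactive controls average about 0.047.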
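Further: Bxb1 expression induced with 0.2% (w/v) L-rhamnose at OD600 near 0.5, cultures sampled hourly, flipped fraction per protease–substrate barcode pair counted by paired-end Illumina sequencing.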

Variant | area with substrate ECLYFQS | area with substrate EDLYFQS | area with substrate EELYFQS | area with substrate EHLYFQS | area with substrate EILYFQS | area with substrate EKLYFQS | area with substrate ELLYFQS | area with substrate EMLYFQS | area with substrate EPLYFQS | area with substrate EQLYFQS | area with substrate ESLYFQS | area with substrate EVLYFQS | area with substrate EWLYFQS | area with substrate EYLYFQS | area with substrate EGLYFQS | area with substrate ERLYFQS | area with substrate EFLYFQS | area with substrate ETLYFQS
F218P | 0.0649 | 0.0562 | 0.0845 | 0.041 | 0.0469 | 0.056 | 0.0576 | 0.0554 | 0.0738 | 0.0639 | 0.0842 | 0.0796 | 0.0715 | 0.0551 | – | – | – | –
I167W | 0.0542 | 0.0632 | 0.049 | 0.0583 | 0.051 | 0.0076 | 0.0546 | 0.0603 | 0.0536 | 0.049 | 0.0535 | 0.0588 | 0.126 | 0.0515 | 0.0531 | 0.0457 | – | –
D27A | 0.0892 | 0.109 | – | 0.114 | 0.102 | 0.11 | – | 0.0856 | 0.108 | 0.0946 | 0.0899 | 0.0837 | 0.0897 | 0.0991 | 0.0805 | – | 0.0751 | –
V78F | 0.0936 | 0.0945 | – | – | 0.0847 | 0.0819 | – | – | 0.115 | – | 0.101 | 0.0832 | 0.0799 | 0.0825 | – | 0.104 | 0.0965 | –
T129Q | 0.0853 | – | 0.118 | – | 0.0975 | – | 0.0753 | 0.102 | – | – | 0.108 | 0.121 | 0.0853 | 0.111 | – | 0.0728 | – | –
H47Y | 0.057 | – | 0.0659 | 0.0479 | 0.0619 | 0.0542 | 0.0287 | 0.0592 | 0.0529 | 0.0668 | 0.0564 | 0.0502 | 0.0604 | 0.0727 | – | 0.0255 | 0.0565 | –
N206G | 0.0888 | – | – | – | 0.0884 | – | 0.0815 | 0.111 | – | – | 0.122 | 0.0993 | – | 0.0982 | 0.0841 | 0.114 | – | –
Q74V | 0.0736 | 0.0852 | 0.0869 | 0.0799 | 0.057 | – | – | 0.061 | 0.0771 | 0.0685 | 0.0669 | 0.0736 | – | 0.0787 | 0.0665 | – | 0.0659 | –
H21W | 0.131 | 0.104 | 0.141 | 0.114 | 0.091 | 0.122 | 0.0999 | 0.115 | 0.118 | 0.141 | 0.0839 | 0.0958 | 0.0903 | – | 0.103 | 0.102 | – | 0.149
G213F | 0.0526 | 0.064 | 0.0611 | – | 0.0745 | 0.0532 | – | – | – | – | 0.0598 | 0.057 | 0.0706 | 0.0625 | – | 0.0646 | 0.0808 | 0.0481
N175F | 0.0628 | 0.0876 | 0.0902 | 0.0742 | 0.0853 | 0.0724 | 0.0984 | 0.0637 | 0.0753 | 0.0779 | 0.0789 | 0.0683 | 0.0696 | – | 0.11 | 0.0789 | – | –
K98I | 0.0936 | 0.122 | – | 0.0952 | 0.0926 | 0.127 | 0.077 | 0.102 | 0.135 | 0.103 | 0.107 | 0.101 | 0.0705 | – | 0.0919 | 0.102 | – | 0.113
D11S | 0.114 | 0.146 | 0.151 | 0.119 | 0.097 | 0.138 | 0.0942 | 0.113 | 0.0827 | 0.138 | 0.107 | 0.17 | 0.104 | 0.126 | – | 0.0951 | 0.122 | 0.135
K68T | 0.113 | – | – | 0.116 | 0.117 | – | 0.112 | 0.113 | – | 0.141 | 0.0941 | – | 0.106 | 0.118 | 0.0962 | – | 0.0608 | –
W212K | 0.0684 | 0.0765 | 0.0675 | – | 0.065 | 0.0581 | 0.0526 | – | 0.0845 | – | 0.0675 | 0.0655 | 0.0688 | 0.0602 | 0.0355 | – | – | 0.0621
F49P | 0.0248 | 0.0489 | 0.0502 | 0.0613 | 0.0504 | – | 0.0619 | 0.0493 | 0.0607 | 0.0845 | 0.0521 | 0.0565 | 0.0565 | 0.0448 | 0.0612 | 0.0646 | 0.0623 | 0.0571
Q146R | 0.115 | – | 0.151 | – | 0.0963 | – | 0.0869 | 0.119 | 0.125 | 0.123 | 0.0154 | 0.117 | – | 0.13 | 0.0944 | – | – | 0.0951
V126M | 0.113 | – | 0.136 | 0.09 | 0.0991 | – | 0.0859 | 0.12 | – | – | 0.115 | 0.0831 | – | – | – | 0.127 | 0.117 | –
S127P | 0.0979 | 0.141 | 0.122 | 0.128 | 0.107 | 0.0788 | – | – | 0.104 | 0.109 | 0.114 | – | 0.1 | 0.0404 | 0.103 | 0.094 | – | –
G39W | 0.0558 | 0.0469 | 0.0483 | 0.0344 | 0.0363 | 0.0195 | 0.0386 | – | – | 0.0518 | 0.0402 | 0.0472 | 0.0395 | – | 0.0505 | 0.0482 | – | 0.0506
E103L | 0.0625 | – | 0.131 | 0.0941 | 0.0965 | 0.109 | 0.105 | 0.124 | 0.135 | 0.138 | 0.112 | 0.108 | – | – | – | 0.0988 | – | –
Q194R | 0.0819 | 0.127 | – | – | 0.107 | 0.0951 | 0.0857 | 0.103 | – | 0.0997 | 0.111 | – | – | – | 0.102 | 0.131 | – | 0.106
V78S | 0.0664 | – | – | 0.0631 | 0.0548 | 0.0663 | 0.0559 | 0.0853 | 0.0698 | 0.0814 | 0.0708 | 0.064 | 0.056 | 0.0699 | 0.0683 | 0.0747 | 0.0867 | 0.0677
F92H | 0.0995 | 0.127 | – | 0.144 | – | 0.096 | 0.112 | – | 0.0893 | – | – | 0.0943 | – | – | 0.103 | 0.109 | – | 0.131
F41W | 0.0364 | 0.0965 | 0.0951 | – | – | 0.0959 | 0.0642 | 0.0895 | 0.0953 | 0.0845 | 0.0782 | 0.0725 | 0.0663 | – | – | 0.0833 | – | 0.0487
Q118T | 0.121 | – | – | 0.125 | 0.113 | – | – | – | 0.0939 | 0.102 | 0.098 | 0.0902 | 0.122 | 0.0951 | 0.0727 | – | – | –
